The text below walks through data of paper PMC12299477 (Viruses, 2025).

One test relates to RSV-A2. The test is described as follows: Virus inhibition assay (plaque reduction), RSV-A2 on Hep-2 cells. Conditions: human respiratory syncytial virus, HEp-2, 72 h, treatment before, during and after infection, read-out: Residual Virus Infectivity (%) RSV-A2. The class given is cell-based.
The test system of a further test is IFV-A H1N1. The test is described as follows: Virus inhibition assay (focus reduction), IFV-A H1N1 on MDCK cells. In kind it is cell-based. The conditions noted are these: Influenza A virus, 20 h, read-out: Residual Virus Infectivity (%) IFV-A H1N1.
Another test relates to HCoV-OC43. The test is described as follows: Virus inhibition assay (focus reduction), HCoV-OC43 on MRC-5 cells. In kind it is cell-based, human coronavirus. The conditions noted are these: Betacoronavirus 1, OC43, MRC5, 20 h, treatment before, during and after infection, read-out: Residual Virus Infectivity (%) HCoV-OC43.

For `O=C(N[C@@H](Cc1ccc(O)cc1)C(=O)O)c1cc(-c2cccs2)c(=O)n2c1sc1ccc(OC3CCCCC3)cc12` [Compound 25], in the test on RSV-A2, the activity at 0.3 µM was found to be 89% and the activity at 3 µM amounted to 85%. Besides, in the test on IFV-A H1N1, the activity at 0.3 µM is 89%, the activity at 3 µM is 85% and the activity at 33 µM stood at 18%. Also, in the test on HCoV-OC43, the activity at 0.3 µM came to 49%, the activity at 3 µM came out at 7% and the activity at 33 µM was 0%.

On to `O=C(N[C@@H](Cc1ccccc1)C(=O)O)c1cc(-c2ccccc2)c(=O)n2c1sc1ccc(OC3CCCCC3)cc12` [Compound 26], for which the activity at 0.3 µM with RSV-A2 worked out at 100%; in the test on IFV-A H1N1, 100%; in the test on HCoV-OC43 it was 79%. Moreover, the activity at 3 µM was 53% with RSV-A2, 100% with IFV-A H1N1 and 64% in the test on HCoV-OC43. Besides, the activity at 33 µM in the test on IFV-A H1N1 worked out at 83%.

For the compound `O=C(N[C@@H](Cc1ccc(O)cc1)C(=O)O)c1ccc(=O)n2c1sc1ccc(OC3CCCCC3)cc12` [Compound 27], the activity at 0.3 µM in the test with RSV-A2, with IFV-A H1N1 and with HCoV-OC43 was 100% each time. In addition, the activity at 3 µM in the test with RSV-A2 was 100%; in the test on IFV-A H1N1, 99%; with HCoV-OC43, 92%. Moreover, the activity at 33 µM in the test on RSV-A2 (33 µM) came to 100%; with IFV-A H1N1, 81%; in the test on HCoV-OC43, 17%.

On to `CCN(CC)CCOc1ccc2sc3c(C(=O)Oc4ccc(S(N)(=O)=O)cc4)cc(-c4ccccc4)c(=O)n3c2c1` [Compound 28], for which the activity at 0.3 µM in the test with RSV-A2 is 100%; in the test on IFV-A H1N1, 100%; in the test with HCoV-OC43 it was 32%. Moreover, the activity at 3 µM in the test with RSV-A2 turned out to be 97%; in the test with IFV-A H1N1, 83%; with HCoV-OC43, 0%.

As to `NS(=O)(=O)c1ccc(OC(=O)c2cc(NCCN3CCOCC3)c(=O)n3c2sc2ccc(OC4CCCCC4)cc23)cc1` [Compound 29], the activity at 0.3 µM in the test with RSV-A2, in the test on IFV-A H1N1 and with HCoV-OC43 was 100% each time. The activity at 3 µM in the test on RSV-A2 came out at 67%; in the test with IFV-A H1N1, 100%; in the test with HCoV-OC43, 100%.
